As a reminder, the GI50 is the concentration that inhibits growth by half. The term TGI denotes the concentration giving total growth inhibition.

Molecules are shown by their SMILES.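 Cells were grown in 96-well plates and exposed to each compound for 48 hours at five concentrations; endpoints were interpolated linearly between bracketing concentrations, or set to the highest concentration if not reached. GI50: concentration for 50% inhibition of growth. At the TGI there is no net growth.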 Bounds are passed on as bounds.

Our source for the GI50 and TGI values is PubChem BioAssay (NCI).

The assay relates to NCI-H322M lung. The assay can be described thus: DTP human tumour cell line panel, 48 h.

Take `CN1C(=O)N(c2ccccc2)C2N=C(N/N=C/c3ccccc3)SC21` (centres undefined): the GI50 was 5.88 µM and the TGI is over 100 µM.
The like results for `CN(C)CCNc1ccc2ncc(C#Cc3cncc(C(=O)Nc4ccc(CN5CCN(C)CC5)c(C(F)(F)F)c4)c3)n2n1` were, in that order, 1.31 µM and 4.26 µM.
